From the supplement of paper PMC4967469

Assays:
Assay in all cases: Viability of human cancer cell lines after 72 h of drug (GDSC screen)
QL-X-138 = compound: C=CC(=O)Nc1cc(-n2c(=O)ccc3cnc4ccc(-c5cn[nH]c5)cc4c32)ccc1C [QL-X-138]; conditions: top dose 10.24 µM; top dose inferred
Procedure: (§1)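 Human cancer cell lines in 384-well plates, medium with 10% serum, drug for 72 h over a 256-fold dose range (nine 2-fold or five 4-fold steps up to the top dose). Adherent lines were fixed and stained with the nucleic acid dye Syto60, suspension lines read with resazurin; signal relative to control wells, capped at 0 and 100%. One two-parameter sigmoid per drug and line, fitted in a mixed model over all curves with the slope shared within a line.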

MPS-1-IN-1 = compound: COc1cc(N2CCC(O)CC2)ccc1Nc1cc(Nc2ccccc2S(=O)(=O)C(C)C)c2cc[nH]c2n1 [MPS-1-IN-1]; conditions: top dose 20 µM; top dose inferred
Procedure: as §1

ABT-869 = compound: Cc1ccc(F)c(NC(=O)Nc2ccc(-c3cccc4[nH]nc(N)c34)cc2)c1 [ABT-869]; conditions: top dose 1.024 µM; top dose inferred
Procedure: as §1

Thapsigargin = compound: C/C=C(/C)C(=O)O[C@H]1C(C)=C2[C@H]([C@@H]1OC(=O)CCCCCCC)[C@@](C)(OC(C)=O)C[C@H](OC(=O)CCC)[C@@]1(O)[C@H]2OC(=O)[C@@]1(C)O [Thapsigargin]; conditions: top dose 0.512 µM; top dose inferred
Procedure: as §1

(5Z)-7-Oxozeaenol = compound: COc1cc(O)c2c(c1)/C=C/C[C@H](O)[C@H](O)C(=O)/C=C\C[C@H](C)OC2=O [(5Z)-7-Oxozeaenol]; conditions: top dose 10 µM; top dose inferred
Procedure: as §1

ABT-888 = compound: C[C@]1(c2nc3c(C(N)=O)cccc3[nH]2)CCCN1 [ABT-888]; conditions: top dose 5 µM; top dose inferred
Procedure: as §1

CHIR-99021 = compound: Cc1cnc(-c2cnc(NCCNc3ccc(C#N)cn3)nc2-c2ccc(Cl)cc2Cl)[nH]1 [CHIR-99021]
Procedure: as §1

Cytarabine = compound: Nc1ccn([C@@H]2O[C@H](CO)[C@@H](O)[C@@H]2O)c(=O)n1 [Cytarabine]; conditions: top dose 2 µM
Procedure: as §1

Zibotentan = compound: COc1nc(C)cnc1NS(=O)(=O)c1cccnc1-c1ccc(-c2nnco2)cc1 [Zibotentan]; conditions: top dose 20 µM; top dose inferred
Procedure: as §1

GSK269962A = compound: CCn1c(-c2nonc2N)nc2cnc(Oc3cccc(NC(=O)c4ccc(OCCN5CCOCC5)cc4)c3)cc21 [GSK269962A]; conditions: top dose 5 µM; screen: GDSC drug entry 1192; top dose inferred
Procedure: as §1

CP466722 = compound: COc1cc2ncnc(-n3nc(-c4ccccn4)nc3N)c2cc1OC [CP466722]; conditions: top dose 16 µM; top dose inferred
Procedure: as §1

[1] = top dose 2.56 µM, screen: GDSC drug entry 154
[2] = top dose 10 µM, screen: GDSC drug entry 1241, top dose inferred

Cell Line	AUC (QL-X-138)	IC50 (QL-X-138) [µM]	AUC (MPS-1-IN-1)	IC50 (MPS-1-IN-1) [µM]	AUC (ABT-869)	IC50 (ABT-869) [µM]	AUC (Thapsigargin)	IC50 (Thapsigargin) [µM]	AUC ((5Z)-7-Oxozeaenol)	IC50 ((5Z)-7-Oxozeaenol) [µM]	AUC (ABT-888)	IC50 (ABT-888) [µM]	AUC (CHIR-99021; [1])	IC50 (CHIR-99021; [1]) [µM]	AUC (CHIR-99021; [2])	IC50 (CHIR-99021; [2]) [µM]	AUC (Cytarabine)	IC50 (Cytarabine) [µM]	AUC (Zibotentan)	IC50 (Zibotentan) [µM]	AUC (GSK269962A)	IC50 (GSK269962A) [µM]	AUC (CP466722)	IC50 (CP466722) [µM]
JHH-6 (liver, adherent)	0.929	> 10.2	0.964	> 20	0.984	> 1.02	0.151	0.0026	0.741	3.1	0.986	> 5	0.98	> 2.56	0.874	> 10	0.767	0.755	0.986	> 20	0.83	3.21	0.953	> 16
KYSE-70 (oesophagus, adherent)	0.906	> 10.2	0.985	> 20	0.982	> 1.02	0.127	< 0.002	0.81	5.86			0.986	> 2.56	0.983	> 10	0.824	1.34	0.986	> 20	0.597	0.593	0.924	> 16
M14 (melanoma, adherent)	0.986	> 10.2	0.837	14.4	0.987	> 1.02	0.299	0.00841	0.121	< 0.0391	0.987	> 5	0.923	> 2.56	0.952	> 10	0.703	0.482	0.987	> 20	0.979	> 5	0.986	> 16
MDA-MB-175-VII (breast, adherent)	0.634	1.56	0.981	> 20	0.98	> 1.02	0.769	0.213	0.727	2.98	0.988	> 5	0.978	> 2.56	0.986	> 10	0.819	1.29	0.986	> 20	0.986	> 5	0.776	7.08
MKN45 (stomach, adherent)	0.866	> 10.2	0.941	> 20	0.982	> 1.02	0.367	0.0124	0.94	> 10	0.974	> 5	0.971	> 2.56	0.947	> 10	0.726	0.661	0.983	> 20	0.97	> 5	0.888	> 16

Lines with a small IC50 respond at low doses; fits outside the tested doses are given as limits. For AUC the same curve is integrated over the 256-fold range of doses and scaled to a fraction: 1 means no effect, lower means more sensitive. For some of these results: The top dose, if marked as inferred, comes from the curve model; the source does not state it. For some of these results: Drugs with an entry number were screened twice under separate entries, and the two screens often disagree.
